# Measurements as given in PubChem BioAssay AID624418 (National Center for Advancing Translational Sciences (NCATS), 2012).
# Where “and” joins values, the source holds several entries; their conditions need not be identical. Identical values can stand only once. The campaign covered roughly 410,000 compounds. About 530 (0.13%) were called active. Inconclusive means that the source gave no clear call. Such entries were picked first, then a sample of the others. Calls follow the shape of the dose curve; as a rule, active = well fitted inhibition curve with a large enough effect; inconclusive = small, poorly fitted or top-dose-only effect, or another doubt; inactive = no such curve, though single readings can be large or run the other way. Potencies beside an inconclusive call are fits to weak or partial responses and may not hold up.
# Assay: qHTS of GLP-1 Receptor Inverse Agonists: Cytotox Screen
# Conditions: HEK293 cAMP-luciferase reporter cells, luminescence, 24 h; activity change, negative = inhibition: at 38.3 µM (top of the series) unless noted
# Method in brief: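 MLSMR compounds, 24 hr on cells at 37 deg C/5% CO2; luminescence after luciferase reagent (12 min RT). Inhibition counted as the undesired cytotoxic outcome.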
# % is scaled to controls: 0 for no effect and ±100 for the full control effect; potency is read from the fitted curve at half-maximal effect.
SMILES,Potency,"activity change, negative = inhibition"
CC1CCN(CCCNC(=O)c2ccc3c(Cl)c4c(nc3c2)CCCC4)CC1,"inconclusive: 2.24 µM [inhibitor, partial curve, poor fit]",–
CCn1cc(C(=O)NCCCN2CCC(C)CC2)c(=O)c2cc(S(=O)(=O)N(C)C3CCCCC3)ccc21,"inactive and inconclusive: 11.2 µM [inhibitor, single point]",–
CNc1nc(-c2ccccn2)nnc1-c1ccccc1,"inconclusive: 28.2 µM [inhibitor, single point]",–
O=C(CCCC(=O)N1CCN(c2ccc([N+](=O)[O-])cc2)CC1)c1ccccc1,–,inactive: -29.7%
COc1ccc(Cn2nnnc2C(c2cccnc2)N2CCN(c3ccc(O)cc3)CC2)cc1 (stereo unspecified),"inconclusive: 6.31 µM [inhibitor, partial curve, poor fit]",–
COc1ccc(S(=O)(=O)NCC(c2ccco2)N2CCN(c3ccccc3F)CC2)cc1OC (stereo unspecified),–,inactive: -12%
COc1ccc(-c2ccc3c(N)c(C(=O)Nc4ccc(C)cc4C)sc3n2)cc1OC,–,inactive: 204%
Cc1cc2n(n1)SC(Nc1cc(Cl)ccc1Cl)N2 (stereo unspecified),"inconclusive: 14.1 µM [inhibitor, partial curve, poor fit]",–
O=C(O)/C=C\C(=O)Nc1cc(O)ccc1[N+](=O)[O-],"inconclusive: 10 µM [inhibitor, partial curve, poor fit]",–
O=C(CSc1cccc[n+]1[O-])c1cc2ccccc2o1,–,inactive: -20.1%
Cc1cccc(Nc2c3c(nc4ccccc24)CCC3)c1,"inconclusive: 28.2 µM [inhibitor, single point]",–
COc1ccc(NC(=O)C2CC(=O)N(Cc3ccc(C)cc3)C2)cc1S(=O)(=O)N1CCCCC1 (stereo unspecified),–,inactive: 6.68%
CC(C)(C)c1ccc(OCC(=O)Nc2ccc(C(=O)Nc3ccccc3C(=O)O)cc2)cc1,"inconclusive: 15.8 µM [inhibitor, single point]",–
CCN(CC(=O)Nc1ccc(OC)cc1)C(=O)c1oc2c(Cl)cccc2c1C,–,inactive: -5.8%
C(=C\c1nc2ccccc2[nH]1)/c1ccccc1,"inconclusive: 11.2 µM [inhibitor, partial curve]",–
Nc1ccccc1C(=O)NC(=O)Nc1ccc(Oc2ncc(Br)cn2)c(Cl)c1,"inconclusive: 0.316 µM [inhibitor, full curve, poor fit]",–
CCCOc1ccc(CNC(=O)C(C)n2nc(C)n3c(cc4occc43)c2=O)cc1 (stereo unspecified),–,inactive: -20%
Nc1ccccc1C#CC(=O)c1ccccc1,"inconclusive: 12.6 µM [inhibitor, single point]",–
CCc1ccc(N=CC23c4ccccc4C(c4ccccc42)C2C(=O)N(c4ccc(OC)cc4)C(=O)C23)cc1 (stereo unspecified),"inconclusive: 14.1 µM [inhibitor, partial curve, poor fit]",–
COc1cc(/C=C2/C(=O)NN(c3ccc(F)cc3)C2=O)cc([N+](=O)[O-])c1O,"inconclusive: 7.94 µM [inhibitor, partial curve]",–
C[C@H](CO)N1C[C@H](C)[C@@H](CN(C)S(=O)(=O)c2cccs2)Oc2c(NC(=O)NC3CCCCC3)cccc2C1=O,"inconclusive: 28.2 µM [inhibitor, single point]",–
Cc1nnsc1C(=O)NNc1c(Cl)cccc1Cl,–,inactive: -26.9%

SMILES,Potency,"activity change, negative = inhibition"
COc1cccc(NC(=O)C2CC2)c1,"inconclusive: 2.51 µM [inhibitor, partial curve, poor fit]",–
CCOc1ccc(NC(=O)COc2ccc(N3CC(C(N)=O)CC3=O)cc2)cc1 (stereo unspecified),"inconclusive: 3.98 µM [inhibitor, partial curve]",–
CCOC(=O)c1ccc(Nc2nc(N)c3cc(OC)c(OC)cc3n2)cc1,"inconclusive: 31.6 µM [inhibitor, single point]",–
Cc1cccc(CCNC(=O)c2ccc3c(c2)nc2n3CCOC2)c1,–,inactive: 2.65%
Cc1cnc(NS(=O)(=O)c2ccccc2)c(Br)c1,"inconclusive: 28.2 µM [inhibitor, single point]",–
CCOC(=O)c1ccc(Nc2ncnc3c2cnn3C)cc1,"inconclusive: 3.98 µM [inhibitor, partial curve, poor fit]",–
CCOc1ccc(NC(=O)CSc2cc(C)c3ccccc3n2)cc1,–,inactive: -11.4%
Oc1ccc(CN2CCN(Cc3ccccc3)CC2)c2cccnc12,"inconclusive: 0.794 µM [inhibitor, full curve, poor fit]",–
Cc1cc(C)cc(NC(=O)c2sc3nc(-c4ccccc4)cn3c2C)c1,"inconclusive: 3.55 µM [inhibitor, partial curve]",–
CCOC(=O)c1cnc2ccccc2c1NCc1ccco1,–,inactive: -3.65%
Cc1c(CCO)sc[n+]1CC(=O)OCCC12CC3CC(CC(C3)C1)C2,"inconclusive: 22.4 µM [inhibitor, single point]",–
O=C(/C=C/c1cccc([N+](=O)[O-])c1)Nn1c(-c2ccccc2F)nc2ccccc2c1=O,"inconclusive: 28.2 µM [inhibitor, single point]",–
COC(=O)C1=C(C(=O)OC)SC(=C2C(=S)C(C)(C)N(C(=O)C3CC3)c3ccccc32)S1,"inconclusive: 10 µM [inhibitor, single point]",–
COc1ccc(S(=O)(=O)N2CCN(Cc3nc4ccc(C)cc4o3)CC2)cc1OC,–,inactive: -6.62%
Clc1nnc(N/N=C/c2ccccc2)c2ccccc12,"inconclusive: 12.6 µM [inhibitor, single point]",–
COc1ccc(Nc2nc(N)c([N+](=O)[O-])c(NC3CCCCC3)n2)cc1,"inconclusive: 28.2 µM [inhibitor, single point]",–
O=C(NC(=S)Nc1ccc(C(F)(F)F)cc1)c1csnn1,–,inactive: -4.35%
O=C(O)Cc1c[nH]c2ccc(O)cc12,–,inactive: -9.98%
Cc1ccc(C(CC(=O)NCC2(c3ccccc3)CCCC2)c2ccccc2)c(O)c1 (stereo unspecified),"inconclusive: 10 µM [inhibitor, single point]",–
COc1ccc(CNCC(O)(c2ccc(Cl)cc2)c2ccc(Cl)cc2)cc1OC,"inconclusive: 28.2 µM [inhibitor, single point]",–
O=C(NNc1nc(-c2ccccc2)cs1)c1ccco1,"inconclusive: 14.1 µM [inhibitor, single point]",–
CCCCC1=CC2=C(c3ccco3)C(=O)C(C)(OC(=O)c3ccc(OC)cc3)C(=O)C2=CN1c1ccccc1 (stereo unspecified),"inconclusive: 10 µM [inhibitor, single point]",–

SMILES,Potency,"activity change, negative = inhibition"
CC(C)(C)c1ccc(C(=O)Nc2nnc(C3=COCCO3)o2)cc1,"inconclusive: 28.2 µM [inhibitor, single point]",–
Cc1ccc(S(=O)(=O)N2CCN(c3ccc([N+](=O)[O-])c4cccnc34)CC2)cc1,–,inactive: -19.1%
CC1CCN(S(=O)(=O)c2ccc3ncn(CC(=O)Nc4ccccc4C(F)(F)F)c(=O)c3c2)CC1,–,inactive: -0.532%
CN1C(=O)CSc2ccc(NC(=O)N3CCc4ccccc43)cc21,"inconclusive: 2.82 µM [inhibitor, partial curve, poor fit]",–
Oc1cccc2ccc(Nc3ccccn3)nc12,"inconclusive: 8.91 µM [inhibitor, partial curve]",–
CCOc1ccc(CCNC(=O)c2ccc(CS(=O)(=O)Cc3ccccc3Cl)o2)cc1OCC,–,inactive: 1.28%
C=C(C)CC1(NC(C)c2ccccc2)CCCCC1 (stereo unspecified),"inconclusive: 28.2 µM [inhibitor, single point]",–
O=C(NN=C1CCCC1)c1cc(-c2ccc(F)cc2)nc2ccccc12,"inconclusive: 28.2 µM [inhibitor, single point]",–
CCCCOc1ccc(-c2cc(C(=O)NNC(=S)NCC)c3ccccc3n2)cc1,"inconclusive: 28.2 µM [inhibitor, single point]",–
CCC(C)CCN1C(Nc2ccccc2)=NC[C@@H]1CC(C)C (stereo partly specified),"inconclusive: 28.2 µM [inhibitor, single point]",–
CC1CCN(c2ccc(NC(=S)NC(=O)c3ccco3)cc2)CC1,"inconclusive: 4.47 µM [inhibitor, full curve]",–
COc1cc(-c2nnc(SCC(=O)/C(C#N)=C(\C)N)o2)cc(OC)c1OC,–,inactive: 13.5%
C[C@H](CO)N1C[C@H](C)[C@@H](CN(C)C(=O)Nc2ccc(C(F)(F)F)cc2)Oc2ccc(NC(=O)Cn3cnnn3)cc2C1=O,"inconclusive: 28.2 µM [inhibitor, single point]",–
Cc1cccc(N2CCN(C(=O)Cc3cn(C)c4ccccc34)CC2)c1C,"inconclusive: 10 µM [inhibitor, partial curve, poor fit]",–
COc1cc(CNc2ccc3[nH]c(=O)[nH]c3c2)cc(Br)c1OCC(=O)NC(C)(C)C,"inconclusive: 7.94 µM [inhibitor, partial curve, poor fit]",–
CCOC(=O)/C=C/C(=O)Nc1ccc(S(=O)(=O)N(C)c2ccccc2)cc1,"inconclusive: 10 µM [inhibitor, partial curve, poor fit]",–
O=C(Nc1cccnc1)c1ccc(COc2ccccc2Br)cc1,"inconclusive: 28.2 µM [inhibitor, single point]",–
COc1ccc(-c2nc(-c3ccc(NC(=O)c4ccc(Br)o4)cc3)no2)cc1OC,–,inactive: 10.8%
COC1=C(Br)C(=O)c2ncccc2C1=O,"inconclusive: 12.6 µM [inhibitor, single point]",–
NC(=S)N/N=C/c1ccccc1OCc1cccc(Cl)c1,"inconclusive: 3.16 µM [inhibitor, full curve]",–
CCC/C=N/NC(=O)c1[nH]c2c([N+](=O)[O-])cccc2c1C,"inconclusive: 5.01 µM [inhibitor, partial curve]",–
CCN(CC)CCNC(=O)C1CCN(S(=O)(=O)c2c(C)noc2/C=C/c2ccccc2F)CC1,"inconclusive: 28.2 µM [inhibitor, single point]",–
